Positions count from the first letter of the chain named. The list shows a part of the results.
B1: GACGUGG (DNA:RNA)
RNA: GGGAGACCGGAAUUCAGAUUGUCCGACGUGGUUAAAUCCCGUCGUAGCCACCA
DNA 1: CAATCTGAATTCCGGTCTCCC
DNA 2: TGGTGGCTACGACGGGATT
B2: GAUGGUG (DNA:RNA)
RNA: B1 RNA with C27U, U29G, G30U
DNA 1: CAATCTGAATTCCGGTCTCCC
DNA 2: TGGTGGCTACGACGGGATT
B3: GUGCGAA (DNA:RNA)
RNA: B1 RNA with A26U, C27G, G28C, U29G, G30A, G31A
DNA 1: CAATCTGAATTCCGGTCTCCC
DNA 2: TGGTGGCTACGACGGGATT
B4: ACAACGC (DNA:RNA)
RNA: B1 RNA with G25A, A26C, C27A, G28A, U29C, G31C
DNA 1: CAATCTGAATTCCGGTCTCCC
DNA 2: TGGTGGCTACGACGGGATT
B5: CAACCAC (DNA:RNA)
RNA: B1 RNA with G25C, C27A, G28C, U29C, G30A, G31C
DNA 1: CAATCTGAATTCCGGTCTCCC
DNA 2: TGGTGGCTACGACGGGATT
B6: CGGCGAG (DNA:RNA)
RNA: B1 RNA with G25C, A26G, C27G, G28C, U29G, G30A
DNA 1: CAATCTGAATTCCGGTCTCCC
DNA 2: TGGTGGCTACGACGGGATT
B7: UCUUGAU (DNA:RNA)
RNA: GGGAGACCGGAAUUCAGAUUGUCCUCUUGAUUUAAAUCCCGUCGUAGCCACCA
DNA 1: CAATCTGAATTCCGGTCTCCC
DNA 2: TGGTGGCTACGACGGGATT
B8: ACGGAUG (DNA:RNA)
RNA: B1 RNA with G25A, A26C, C27G, U29A, G30U
DNA 1: CAATCTGAATTCCGGTCTCCC
DNA 2: TGGTGGCTACGACGGGATT
B9: CUAAUCC (DNA:RNA)
RNA: B1 RNA with G25C, A26U, C27A, G28A, G30C, G31C
DNA 1: CAATCTGAATTCCGGTCTCCC
DNA 2: TGGTGGCTACGACGGGATT
B10: UUGAUCC (DNA:RNA)
RNA: B1 RNA with G25U, A26U, C27G, G28A, G30C, G31C
DNA 1: CAATCTGAATTCCGGTCTCCC
DNA 2: TGGTGGCTACGACGGGATT
B11: GAGGAGU (DNA:RNA)
RNA: B1 RNA with C27G, U29A, G31U
DNA 1: CAATCTGAATTCCGGTCTCCC
DNA 2: TGGTGGCTACGACGGGATT
B12: UUUGAAA (DNA:RNA)
RNA: B7 RNA with C26U, U28G, G29A, U31A
DNA 1: CAATCTGAATTCCGGTCTCCC
DNA 2: TGGTGGCTACGACGGGATT
B13: CUAGCGC (DNA:RNA)
RNA: B1 RNA with G25C, A26U, C27A, U29C, G31C
DNA 1: CAATCTGAATTCCGGTCTCCC
DNA 2: TGGTGGCTACGACGGGATT
B14: CAUUAAU (DNA:RNA)
RNA: B7 RNA with U25C, C26A, G29A
DNA 1: CAATCTGAATTCCGGTCTCCC
DNA 2: TGGTGGCTACGACGGGATT
B15: CUUAGGC (DNA:RNA)
RNA: B7 RNA with U25C, C26U, U28A, A30G, U31C
DNA 1: CAATCTGAATTCCGGTCTCCC
DNA 2: TGGTGGCTACGACGGGATT
B16: AGCGGCA (DNA:RNA)
RNA: B1 RNA with G25A, A26G, U29G, G30C, G31A
DNA 1: CAATCTGAATTCCGGTCTCCC
DNA 2: TGGTGGCTACGACGGGATT
B17: ACAAGGC (DNA:RNA)
RNA: B7 RNA with U25A, U27A, U28A, A30G, U31C
DNA 1: CAATCTGAATTCCGGTCTCCC
DNA 2: TGGTGGCTACGACGGGATT
B18: GAUCGUA (DNA:RNA)
RNA: B1 RNA with C27U, G28C, U29G, G30U, G31A
DNA 1: CAATCTGAATTCCGGTCTCCC
DNA 2: TGGTGGCTACGACGGGATT
B19: CGCAUAU (DNA:RNA)
RNA: B1 RNA with G25C, A26G, G28A, G30A, G31U
DNA 1: CAATCTGAATTCCGGTCTCCC
DNA 2: TGGTGGCTACGACGGGATT
B20: AGAAGCA (DNA:RNA)
RNA: B7 RNA with U25A, C26G, U27A, U28A, A30C, U31A
DNA 1: CAATCTGAATTCCGGTCTCCC
DNA 2: TGGTGGCTACGACGGGATT
B21: UAGUAUA (DNA:RNA)
RNA: B7 RNA with C26A, U27G, G29A, A30U, U31A
DNA 1: CAATCTGAATTCCGGTCTCCC
DNA 2: TGGTGGCTACGACGGGATT
B22: UAUAGGA (DNA:RNA)
RNA: B7 RNA with C26A, U28A, A30G, U31A
DNA 1: CAATCTGAATTCCGGTCTCCC
DNA 2: TGGTGGCTACGACGGGATT
B23: AGUUCAA (DNA:RNA)
RNA: B7 RNA with U25A, C26G, G29C, U31A
DNA 1: CAATCTGAATTCCGGTCTCCC
DNA 2: TGGTGGCTACGACGGGATT
B24: UUCCUCU (DNA:RNA)
RNA: B1 RNA with G25U, A26U, G28C, G30C, G31U
DNA 1: CAATCTGAATTCCGGTCTCCC
DNA 2: TGGTGGCTACGACGGGATT
B25: AGGGGAG (DNA:RNA)
RNA: B1 RNA with G25A, A26G, C27G, U29G, G30A
DNA 1: CAATCTGAATTCCGGTCTCCC
DNA 2: TGGTGGCTACGACGGGATT
B26: UUGUCCC (DNA:RNA)
RNA: B7 RNA with C26U, U27G, G29C, A30C, U31C
DNA 1: CAATCTGAATTCCGGTCTCCC
DNA 2: TGGTGGCTACGACGGGATT
B27: AACUGAA (DNA:RNA)
RNA: B7 RNA with U25A, C26A, U27C, U31A
DNA 1: CAATCTGAATTCCGGTCTCCC
DNA 2: TGGTGGCTACGACGGGATT
B28: GGUUCUU (DNA:RNA)
RNA: B7 RNA with U25G, C26G, G29C, A30U
DNA 1: CAATCTGAATTCCGGTCTCCC
DNA 2: TGGTGGCTACGACGGGATT
B29: AGCACGG (DNA:RNA)
RNA: B1 RNA with G25A, A26G, G28A, U29C
DNA 1: CAATCTGAATTCCGGTCTCCC
DNA 2: TGGTGGCTACGACGGGATT
B30: UAUAAUA (DNA:RNA)
RNA: B7 RNA with C26A, U28A, G29A, A30U, U31A
DNA 1: CAATCTGAATTCCGGTCTCCC
DNA 2: TGGTGGCTACGACGGGATT
B31: CGAACGG (DNA:RNA)
RNA: B1 RNA with G25C, A26G, C27A, G28A, U29C
DNA 1: CAATCTGAATTCCGGTCTCCC
DNA 2: TGGTGGCTACGACGGGATT

molecular target: T1, RBFOX1 RRM RbFoxmut (Fox-RRM*) (Homo sapiens, UniProt Q9NWB1 109-208, R118D;E147R;N151S;E152T); assay: EMSA; HiTS-Eq, 1 nM pool, 10 min; buffer printed only for the single-RNA assays: 10 mM Tris pH 7.5, 150 mM NaCl, 3.4 mM EDTA, 0.001% NP-40, 30 C; conditions: tags: His6 N-terminal (pET28a); label: 5' 32P
T1 sequence: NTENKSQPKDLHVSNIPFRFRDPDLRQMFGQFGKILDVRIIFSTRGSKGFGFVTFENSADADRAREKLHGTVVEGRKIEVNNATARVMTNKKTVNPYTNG
How it was run: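 Relative association constants, normalised to the cognate motif, were derived by comparing read counts of each RNA species with those of the control reaction. The RNA sequenced was the free fraction, separated by 8% native PAGE after a 10 min equilibration in 50 µL of 1 nM 5′-radiolabelled RNA (7 randomized nucleotides) with increasing concentrations of purified wild-type or mutant RbFox RRM.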

| Binder | binding signal |
| --- | --- |
| B1 | 0.0986 KA relative to UGCAUGU |
| B2 | 0.118 KA relative to UGCAUGU |
| B3 | 0.129 KA relative to UGCAUGU |
| B4 | 0.073 KA relative to UGCAUGU |
| B5 | 0.11 KA relative to UGCAUGU |
| B6 | 0.119 KA relative to UGCAUGU |
| B7 | 0.0987 KA relative to UGCAUGU |
| B8 | 0.141 KA relative to UGCAUGU |
| B9 | 0.0531 KA relative to UGCAUGU |
| B10 | 0.0834 KA relative to UGCAUGU |
| B11 | 0.109 KA relative to UGCAUGU |
| B12 | 0.0685 KA relative to UGCAUGU |
| B13 | 0.0883 KA relative to UGCAUGU |
| B14 | 0.113 KA relative to UGCAUGU |
| B15 | 0.101 KA relative to UGCAUGU |
| B16 | 0.113 KA relative to UGCAUGU |

| Binder | binding signal |
| --- | --- |
| B17 | 0.103 KA relative to UGCAUGU |
| B18 | 0.142 KA relative to UGCAUGU |
| B19 | 0.138 KA relative to UGCAUGU |
| B20 | 0.124 KA relative to UGCAUGU |
| B21 | 0.142 KA relative to UGCAUGU |
| B22 | 0.0839 KA relative to UGCAUGU |
| B23 | 0.0774 KA relative to UGCAUGU |
| B24 | 0.0669 KA relative to UGCAUGU |
| B25 | 0.149 KA relative to UGCAUGU |
| B26 | 0.0731 KA relative to UGCAUGU |
| B27 | 0.0595 KA relative to UGCAUGU |
| B28 | 0.0681 KA relative to UGCAUGU |
| B29 | 0.216 KA relative to UGCAUGU |
| B30 | 0.0938 KA relative to UGCAUGU |
| B31 | 0.162 KA relative to UGCAUGU |

Reference: publication PMC9911399, “Two distinct binding modes provide the RNA-binding protein RbFox with extraordinary sequence specificity”
